# In PubChem BioAssay AID686978 (National Center for Advancing Translational Sciences (NCATS), 2013):
# Where “and” joins values, the source holds several entries; their conditions need not be identical. Identical values can stand only once. The campaign covered roughly 420,000 compounds. About 64,000 (15%) were called active. This list was built around the results that the source calls inconclusive (neither active nor inactive); the mix of calls is not that of the screen. The call rests on the fitted dose curve; in most records, active means well fitted inhibition curve with a large enough effect; inconclusive means small, poorly fitted or top-dose-only effect; inactive means flat fitted curve, though single readings scatter. A potency beside an inconclusive call is a rough fit, not a confirmed value.
# Experiment: qHTS for Inhibitors of human tyrosyl-DNA phosphodiesterase 1 (TDP1): qHTS in cells in absence of CPT; further: nearly all actives have a fitted effect of over 55% in size
# Details: DT40 Tdp1-/- hTDP1 cells, no CPT, ATP luminescence, 48 h; activity change, negative = growth inhibition: at 46.2 µM (top of the series) unless noted
# Procedure, shortened: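 A cellular qHTS used chicken DT40 cells lacking endogenous Tdp1 but carrying stably transfected human TDP1. Compounds were applied without camptothecin, and cell growth kinetics were judged by ATP-dependent luminescence after ≥48 hr.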
# On the % scale 0 is the no-effect control and ±100 the full control effect; potency means the concentration at half of the fitted maximal effect; tags describe the fitted curve by direction and shape.
Compound,Potency,"activity change, negative = growth inhibition"
Cc1ccc(CSc2nc3ncccc3[nH]2)cc1,"inconclusive: 20.6 µM [inhibitor, single point]",–
CCOC(=O)c1cn(-c2ccc(F)c(F)c2F)c2c(F)c(F)c(F)cc2c1=O,"inconclusive: 29.1 µM [inhibitor, single point]",–
COc1ccc(/C=C(\C#N)c2c[nH]c3ccccc23)cc1,active: 0.651 µM,–
CCOC(=O)C1C(=O)C=C(c2ccc(C)cc2)CC1c1ccccc1 (stereo not given),"inconclusive: 29.1 µM [inhibitor, single point]",–
CCn1c(CN2CCCCC2)nc2cc(NC(=O)c3ccccc3[N+](=O)[O-])ccc21,"inconclusive: 29.1 µM [inhibitor, single point]",–
CN1CCN(S(=O)(=O)c2cccc(C(=O)Nc3cccc([N+](=O)[O-])c3)c2)CC1,–,inconclusive: -33.6% [inhibitor]
COc1cccc(NC(=O)C(=O)NCCc2csc(-c3ccc(C)cc3)n2)c1,"inconclusive: 13 µM [inhibitor, partial curve]",–
NC(=O)C1(Nc2ccc(C(=O)O)cc2)CCCC1,inactive,–
CC(=O)N1c2ccc(S(=O)(=O)NCC3CCC(C(=O)Nc4ccc(C)cn4)CC3)cc2CC1C (stereo not given),"inconclusive: 9.2 µM [inhibitor, partial curve]",–
COc1ccc(C2=C(C)C(N3CCC(C(=O)Nc4cc(C)ccc4C)CC3)=NS2(=O)=O)cc1,inactive,–
COc1ccc(-c2cnc(C(O)c3ccc(-c4ccccc4)cc3)[nH]2)cc1 (stereo not given),"inconclusive: 18.4 µM [inhibitor, single point]",–
C=CCn1c(=NC(=O)c2ccc(S(=O)(=O)N3CCCc4ccccc43)cc2)sc2cc(S(N)(=O)=O)ccc21,"inconclusive: 18.4 µM [inhibitor, single point]",–
O=C(CCC(=O)Nc1cc(C(F)(F)F)ccc1Cl)N/N=C\c1cc([N+](=O)[O-])ccc1O,active: 8.2 µM,–
Cc1ccc(/C=N/NC(=O)CCn2nc(C)cc2C)c(C)c1,"inconclusive: 25.9 µM [inhibitor, single point]",–
FC(F)(F)c1ccccc1NC(=S)Nc1cccc2cnccc12,"inconclusive: 20.6 µM [inhibitor, partial curve]",–
CCN1CCCC1CNC(=O)c1cc(COc2ccc(C)c(C)c2)on1 (stereo not given),inactive,–
C=C(C)CNC(=S)N/N=C1\CCCCc2ccccc21,"inconclusive: 23.1 µM [inhibitor, single point]",–
CC[C@@H](C)[C@H](NC(=O)OCc1ccccc1)c1nnc([C@@H](NC(=O)OCc2ccccc2)[C@@H](C)CC)o1,"inconclusive: 18.4 µM [inhibitor, single point]",–
Cc1cc(C)c(S(=O)(=O)c2ccccc2C)c(SCC(C)C)n1,active: 23.1 µM,–
O=C(Nc1cccc2cccnc12)c1cccc2ccccc12,"inconclusive: 20.6 µM [inhibitor, partial curve] and inconclusive: 16.4 µM [inhibitor, partial curve]",–
CCOc1ccc(C(=O)Nc2ccc(C(=O)OCc3cc(=O)n4ccsc4n3)cc2)cc1,inactive,–
Cc1ccc(-c2cnc3cccnn23)cc1F,"inconclusive: 14.6 µM [inhibitor, partial curve]",–
CC(C)C(=O)N1CCN(CCN=CC2=C(O)CC(c3ccco3)CC2=O)CC1 (stereo not given),inactive,–
COc1ccc(S(=O)(=O)NCC2CCC(C(=O)NCc3ccco3)CC2)cc1 (stereo not given),"inconclusive: 29.1 µM [inhibitor, single point]",–

Compound,Potency,"activity change, negative = growth inhibition"
CCN(CC)C(=O)c1ccc(-c2nnc(Nc3cccc(O)c3)c3ccccc23)cc1,"inconclusive: 23.1 µM [inhibitor, single point]",–
COC(=O)c1ccc(Cl)cc1NC(=O)NCc1c(-n2cccc2)sc2c1CCCC2,"inconclusive: 16.4 µM [inhibitor, partial curve]",–
Cc1ccc(OCc2nnc(SCC(=O)c3cccc([N+](=O)[O-])c3)n2C)cc1,"inconclusive: 18.4 µM [inhibitor, single point]",–
CCOC(=O)c1sc(C)c2c1NC(c1ccc(N(C)C)cc1)NC2=O (stereo not given),"inconclusive: 18.4 µM [inhibitor, single point]",–
CC(=O)Nc1ccc(NC2=Nc3ccccc3N3C2=Nc2c(c(C)nn2-c2ccccc2)C3c2ccccc2)cc1 (stereo not given),active: 2.31 µM,–
CN1CSC2=C(C#N)C(c3cccc(OCc4ccccc4)c3)CC(=O)N2C1 (stereo not given),"inconclusive: 25.9 µM [inhibitor, single point]",–
c1ccc(Cn2ncc3c(N4CCCCC4)ncnc32)cc1,"inconclusive: 29.1 µM [inhibitor, single point]",–
C=CCNC(=O)c1ccccc1NC(=O)c1ccc(Cl)c(S(=O)(=O)Nc2cc(C)ccc2C)c1,"inconclusive: 20.6 µM [inhibitor, single point]",–
COc1ccccc1CNc1nc(-c2cccnc2)nc2ccccc12,"inconclusive: 29.1 µM [inhibitor, single point]",–
Cc1ccc(-c2nn3c(C)nnc3c3ccccc23)cc1S(=O)(=O)N(C)CCO,"inconclusive: 29.1 µM [inhibitor, single point]",–
C=CCOc1ccccc1CN1CCC(Cc2ccccc2)CC1,"inconclusive: 18.4 µM [inhibitor, single point]",–
O=C(CNC(=O)c1ccc(S(=O)(=O)N2CCCC2)cc1)N/N=C/c1ccccc1Cl,active: 13 µM,–
COc1ccc(SCC(O)Cn2c3ccccc3c3ccccc32)c(OC)c1 (stereo not given),"inconclusive: 29.1 µM [inhibitor, single point]",–
CC(C)NC(=S)N/N=C1\CCCCC1C1CCCCC1 (stereo not given),active: 2.91 µM,–
CN(C)CCCn1c(N)c(S(=O)(=O)c2ccccc2)c2nc3ccccc3nc21,"inconclusive: 29.1 µM [inhibitor, single point]",–
COc1cccc(N2CCN(C(=O)c3cc4c(=O)n(Cc5cccs5)ccc4nc3C)CC2)c1,"inconclusive: 23.1 µM [inhibitor, single point]",–
COc1ccc(OC)c(/C=C/C(=O)N(C)CC(=O)Nc2cc(C)ccc2C)c1,"inconclusive: 10.3 µM [inhibitor, partial curve]",–
O=C(CSc1ccc2c(c1)OCCO2)Nc1ncccc1O,inactive,–
CC(C)(C)c1ccc(OCCC(=O)NCC(c2cccs2)N2CCOCC2)cc1 (stereo not given),"inconclusive: 23.1 µM [inhibitor, single point]",–
Cc1nnc(Cc2ccco2)c2n[nH]c(C)c12,"inconclusive: 25.9 µM [inhibitor, single point]",–
COc1cc(C(=O)NCCCN2CCCC2=O)ccc1OCc1ccc(Cl)cc1Cl,active: 18.4 µM,–
CN1C(=O)c2c(sc3c2CC(C)(C)SC3)N2CCN=C12,active: 20.6 µM,–
O=C(Nc1ccc(N2C(=O)CCC2=O)cc1Cl)c1cccs1,inactive,–
O=[N+]([O-])c1ccc(Oc2ccc(Oc3ccc(C(F)(F)F)cn3)cc2)nc1,active: 25.9 µM,–

Compound,Potency,"activity change, negative = growth inhibition"
N#CC1=C(N)OC2=C(C(=O)CC(c3ccccc3)C2)C1c1ccc2c(c1)OCO2 (stereo not given),"inconclusive: 20.6 µM [inhibitor, single point]",–
Cc1cc(C)n(C(=O)CN(C)S(=O)(=O)c2ccc([N+](=O)[O-])cc2)n1,inactive,–
CCN(CC)S(=O)(=O)c1ccc2oc(Nc3ccc(OC)cc3OC)nc2c1,active: 18.4 µM,–
COc1ccccc1NC(=O)CN1C(=O)CC(c2ccc(C)c(C)c2)=Nc2ccccc21,active: 23.1 µM,–
CCn1c(Cn2nnc(-c3ccccc3)n2)nnc1SCc1ccc(Cl)c(Cl)c1,active: 23.1 µM,–
CCCc1c(O)nc(SC2CC(=O)N(c3ccc(OC)cc3)C2=O)[nH]c1=O (stereo not given),–,inconclusive: -38.5% [inhibitor]
Cc1c(NC(=O)c2ccc3c(c2)OCO3)cccc1-c1nc2ccccc2s1,"inconclusive: 29.1 µM [inhibitor, single point]",–
Cc1nc2ccccc2c(=O)n1/N=C/c1cc(Br)ccc1O,"inconclusive: 16.4 µM [inhibitor, single point]",–
CCCn1c(CN2CCN(C(=O)OCC)CC2)nc2c1c(=O)n(C)c(=O)n2C,active: 5.17 µM,–
CCOC(=O)c1c[nH]c2c(C(=O)c3ccccc3)cc(Cl)cc2c1=O,"inconclusive: 25.9 µM [inhibitor, single point]",–
Cc1ccc(C(=O)OC(C)C(=O)Nc2ccc(Cl)cn2)s1 (stereo not given),inactive,–
CCN1CCN(Cc2ccc(NC(=O)c3ccc(C)c(NC(=O)c4ccno4)c3)cc2C(F)(F)F)CC1,active: 6.51 µM,–
COc1ccc(CCNC(=O)c2ccc(-n3c(C)cc4c3CCCC4)cc2)cc1OC,active: 18.4 µM,–
Cc1nc2ccc(C(=O)N3c4ccccc4CC3C)cc2s1 (stereo not given),"inconclusive: 16.4 µM [inhibitor, single point]",–
O=C(COC(=O)C1COc2ccccc2O1)Nc1ccc(Cl)cc1 (stereo not given),inactive,–
CN(CC(=O)Nc1ccccc1Cl)C1CCS(=O)(=O)C1 (stereo not given),inactive,–
CCOc1ccc(NC(=O)Nc2ccccc2SC)cc1,active: 23.1 µM,–
Nc1ccccc1O,active: 16.4 µM,–
CCCSc1ncc(Cl)c(C(=O)Nc2c(C(=O)Nc3ccccc3)oc3ccccc23)n1,inactive,–
CC(C)CN(C(=O)COC(=O)CCCc1c[nH]c2ccccc12)c1c(N)n(Cc2ccccc2)c(=O)[nH]c1=O,inactive,–
CC(=O)Nc1ccc(-c2ccnc3c2CC(C)(C(=O)Nc2cccc(Oc4ccccc4)c2)O3)cc1 (stereo not given),active: 16.4 µM,–
COc1ccc(N2CCN(S(=O)(=O)CCNC(=O)COc3cccc(OC)c3)CC2)cc1,"inconclusive: 20.6 µM [inhibitor, single point]",–
